This is one part of the list.
What was measured:
Test in all cases: glycan array binding signal (z-score within array); higher = stronger binding
Settings in all cases: glycan notation: IUPAC condensed, linker removed
[1] = target: Gal(b1-3)[Fuc(a1-4)]GlcNAc(b1-6)GalNAc
How it was run: (§1)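 Glycan array binding is given as a within-array Z-score, which can be read as non-binding when negative. The arrays, 3228 of them, came from the Consortium for Functional Glycomics database and were retained only where the protein sequence was available. Z-scores were averaged across arrays of the same protein sequence at different concentrations or buffers and across linkers.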

[2] = target: Gal(b1-3)[GlcNAc(b1-6)]GalNAc
How it was run: as §1

[3] = target: Gal(b1-3)[Neu5Ac(a2-6)]GalNAc
How it was run: as §1

[4] = target: Gal(b1-3)[Neu5Ac(a2-6)]GlcNAc(b1-4)Gal(b1-4)Glc
How it was run: as §1

[5] = target: Gal(b1-3)[Neu5Ac(b2-6)]GalNAc
How it was run: as §1

Gal(b1-4)Gal = target: Gal(b1-4)Gal
How it was run: as §1

[6] = target: Gal(b1-4)GalNAc(a1-3)[Fuc(a1-2)]Gal(b1-4)GlcNAc
How it was run: as §1

[7] = target: Gal(b1-4)GalNAc(b1-3)[Fuc(a1-2)]Gal(b1-4)GlcNAc
How it was run: as §1

Gal(b1-4)Glc = target: Gal(b1-4)Glc
How it was run: as §1

Gal(b1-4)Glc6S = target: Gal(b1-4)Glc6S
How it was run: as §1

Gal(b1-4)GlcNAc = target: Gal(b1-4)GlcNAc
How it was run: as §1

[8] = target: Gal(b1-4)GlcNAc(a1-6)Gal(b1-4)GlcNAc
How it was run: as §1

Gal(b1-4)GlcNAc(b1-2)Man = target: Gal(b1-4)GlcNAc(b1-2)Man
How it was run: as §1

[9] = target: Gal(b1-4)GlcNAc(b1-2)Man(a1-3)Man(b1-4)GlcNAc(b1-4)GlcNAc
How it was run: as §1

[10] = target: Gal(b1-4)GlcNAc(b1-2)Man(a1-3)[Gal(b1-4)GlcNAc(b1-2)Man(a1-6)]Man(b1-4)GlcNAc(b1-4)GlcNAc
How it was run: as §1

[11] = target: Gal(b1-4)GlcNAc(b1-2)Man(a1-3)[Gal(b1-4)GlcNAc(b1-2)Man(a1-6)]Man(b1-4)GlcNAc(b1-4)[Fuc(a1-6)]GlcNAc
How it was run: as §1

[12] = target: Gal(b1-4)GlcNAc(b1-2)Man(a1-3)[Gal(b1-4)GlcNAc(b1-2)Man(a1-6)][Gal(b1-4)GlcNAc(b1-4)]Man(b1-4)GlcNAc(b1-4)[Fuc(a1-6)]GlcNAc
How it was run: as §1

[13] = target: Gal(b1-4)GlcNAc(b1-2)Man(a1-3)[Gal(b1-4)GlcNAc(b1-2)Man(a1-6)][GlcNAc(b1-4)]Man(b1-4)GlcNAc(b1-4)[Fuc(a1-6)]GlcNAc
How it was run: as §1

[14] = target: Gal(b1-4)GlcNAc(b1-2)Man(a1-3)[GlcNAc(b1-2)Man(a1-6)]Man(b1-4)GlcNAc(b1-4)GlcNAc
How it was run: as §1

[15] = target: Gal(b1-4)GlcNAc(b1-2)Man(a1-3)[GlcNAc(b1-4)][Gal(b1-4)GlcNAc(b1-2)Man(a1-6)]Man(b1-4)GlcNAc(b1-4)GlcNAc
How it was run: as §1

[16] = target: Gal(b1-4)GlcNAc(b1-2)Man(a1-3)[Man(a1-6)]Man(b1-4)GlcNAc(b1-4)GlcNAc
How it was run: as §1

[17] = target: Gal(b1-4)GlcNAc(b1-2)Man(a1-6)Man(b1-4)GlcNAc(b1-4)GlcNAc
How it was run: as §1

[18] = target: Gal(b1-4)GlcNAc(b1-2)Man(a1-6)[GlcNAc(b1-2)Man(a1-3)]Man(b1-4)GlcNAc(b1-4)GlcNAc
How it was run: as §1

[19] = target: Gal(b1-4)GlcNAc(b1-2)Man(a1-6)[Man(a1-3)]Man(b1-4)GlcNAc(b1-4)GlcNAc
How it was run: as §1

[20] = target: Gal(b1-4)GlcNAc(b1-2)[Gal(b1-4)GlcNAc(b1-4)]Man(a1-3)[Gal(b1-4)GlcNAc(b1-2)Man(a1-6)]Man(b1-4)GlcNAc(b1-4)GlcNAc
How it was run: as §1

[21] = target: Gal(b1-4)GlcNAc(b1-2)[Gal(b1-4)GlcNAc(b1-4)]Man(a1-3)[Gal(b1-4)GlcNAc(b1-2)[Gal(b1-4)GlcNAc(b1-6)]Man(a1-6)]Man(b1-4)GlcNAc(b1-4)GlcNAc
How it was run: as §1

[22] = target: Gal(b1-4)GlcNAc(b1-2)[Gal(b1-4)GlcNAc(b1-4)]Man(a1-3)[GlcNAc(b1-4)][Gal(b1-4)GlcNAc(b1-2)Man(a1-6)]Man(b1-4)GlcNAc(b1-4)GlcNAc
How it was run: as §1

[23] = target: Gal(b1-4)GlcNAc(b1-2)[Gal(b1-4)GlcNAc(b1-4)]Man(a1-3)[GlcNAc(b1-4)][Gal(b1-4)GlcNAc(b1-2)[Gal(b1-4)GlcNAc(b1-6)]Man(a1-6)]Man(b1-4)GlcNAc(b1-4)GlcNAc
How it was run: as §1

[24] = target: Gal(b1-4)GlcNAc(b1-2)[Gal(b1-4)GlcNAc(b1-6)]Man(a1-6)[Gal(b1-4)GlcNAc(b1-2)Man(a1-3)]Man(b1-4)GlcNAc(b1-4)GlcNAc
How it was run: as §1

[25] = target: Gal(b1-4)GlcNAc(b1-2)[Gal(b1-4)GlcNAc(b1-6)]Man(a1-6)[Gal(b1-4)GlcNAc(b1-2)Man(a1-3)]Man(b1-4)GlcNAc(b1-4)[Fuc(a1-6)]GlcNAc
How it was run: as §1

[26] = target: Gal(b1-4)GlcNAc(b1-2)[Gal(b1-4)GlcNAc(b1-6)]Man(a1-6)[GlcNAc(b1-4)][Gal(b1-4)GlcNAc(b1-2)Man(a1-3)]Man(b1-4)GlcNAc(b1-4)GlcNAc
How it was run: as §1

[27] = target: Gal(b1-4)GlcNAc(b1-2)[Gal(b1-4)GlcNAc(b1-6)]Man(a1-6)[GlcNAc(b1-4)][Gal(b1-4)GlcNAc(b1-2)[Gal(b1-4)GlcNAc(b1-4)]Man(a1-3)]Man(b1-4)GlcNAc(b1-4)[Fuc(a1-6)]GlcNAc
How it was run: as §1

[28] = target: Gal(b1-4)GlcNAc(b1-3)Gal(b1-3)GalNAc
How it was run: as §1

[29] = target: Gal(b1-4)GlcNAc(b1-3)Gal(b1-3)GlcNAc
How it was run: as §1

[30] = target: Gal(b1-4)GlcNAc(b1-3)Gal(b1-4)Glc
How it was run: as §1

[31] = target: Gal(b1-4)GlcNAc(b1-3)Gal(b1-4)GlcNAc
How it was run: as §1

[32] = target: Gal(b1-4)GlcNAc(b1-3)Gal(b1-4)GlcNAc(b1-2)Man(a1-3)[Gal(b1-4)GlcNAc(b1-3)Gal(b1-4)GlcNAc(b1-2)Man(a1-6)]Man(b1-4)GlcNAc(b1-4)GlcNAc
How it was run: as §1

[33] = target: Gal(b1-4)GlcNAc(b1-3)Gal(b1-4)GlcNAc(b1-2)Man(a1-3)[Gal(b1-4)GlcNAc(b1-3)Gal(b1-4)GlcNAc(b1-2)Man(a1-6)]Man(b1-4)GlcNAc(b1-4)[Fuc(a1-6)]GlcNAc
How it was run: as §1

B1: GS7807E-bfa-538-23-538 (Bacteroides fragilis) (protein)
chain: TDSFESFNTNEAGFDNDSKKQDFNYYGIPLGIIQQGIYFNYDWGSGKNWPFQTMQNLGADLFSGYVHDFNPFNEGKNNSTYYMMDGWNGSTWDNTYGYIMPEVQKSETINEKDNIGFFGITKILKVELMHRLSDLYGPIVYTQFGSKTGSTPDTQQEAYKAFFNDLDTGIAKIREYQKANPDIESFAKFDILMPQGKRTFSEWIRFANSLRLRLAVRIAMADSKLAVAEAQKALTDEEGLLEGNDEVVAVSTSSGYTNPFGEINKAWGEVFMNANMESLLVGYEDPRMEKYFDKATGSDATSLIDYKGTYKGIRQGTGFSHKNYNGHSKSTITQQTDAVLMTPAEVWFLRAEAALRGWSSESVKDCYEKGVKASFAQWGAAGAEAYLESDRKPSDYVDAFKAANNVKAVNTLTPKWDDAAGNEDKLGRIITQKWLAMFPEGGEAWAEQRRTGYPRLFPVLVNQSEGTVDTNLGPRRLNFFVGIKTTNPEQYTQLVNALGGIDNCGTRLWWDTGRNF
- glycan array binding signal (z-score) [1]: 2.33
- glycan array binding signal (z-score) [2]: -0.001
- glycan array binding signal (z-score) [3]: -0.403
- glycan array binding signal (z-score) [4]: -0.144
- glycan array binding signal (z-score) [5]: -0.551
- glycan array binding signal (z-score) (Gal(b1-4)Gal): -0.624
- glycan array binding signal (z-score) [6]: -0.239
- glycan array binding signal (z-score) [7]: -0.41
- glycan array binding signal (z-score) (Gal(b1-4)Glc): -0.011
- glycan array binding signal (z-score) (Gal(b1-4)Glc6S): 0.734
- glycan array binding signal (z-score) (Gal(b1-4)GlcNAc): -0.208
- glycan array binding signal (z-score) [8]: -0.268
- glycan array binding signal (z-score) (Gal(b1-4)GlcNAc(b1-2)Man): -0.486
- glycan array binding signal (z-score) [9]: 0.489
- glycan array binding signal (z-score) [10]: 0.153
- glycan array binding signal (z-score) [11]: 2.42
- glycan array binding signal (z-score) [12]: 2.37
- glycan array binding signal (z-score) [13]: 0.506
- glycan array binding signal (z-score) [14]: -0.651
- glycan array binding signal (z-score) [15]: 0.282
- glycan array binding signal (z-score) [16]: 0.193
- glycan array binding signal (z-score) [17]: 2.4
- glycan array binding signal (z-score) [18]: 2.11
- glycan array binding signal (z-score) [19]: -0.079
- glycan array binding signal (z-score) [20]: 3.32
- glycan array binding signal (z-score) [21]: -0.328
- glycan array binding signal (z-score) [22]: 0.844
- glycan array binding signal (z-score) [23]: 0.622
- glycan array binding signal (z-score) [24]: 1.14
- glycan array binding signal (z-score) [25]: 0.713
- glycan array binding signal (z-score) [26]: 0.637
- glycan array binding signal (z-score) [27]: -0.314
- glycan array binding signal (z-score) [28]: 0.715
- glycan array binding signal (z-score) [29]: -0.306
- glycan array binding signal (z-score) [30]: -0.446
- glycan array binding signal (z-score) [31]: -0.483
- glycan array binding signal (z-score) [32]: 0.271
- glycan array binding signal (z-score) [33]: 2.56

— the supplement of paper PMC8728848
